± gives the standard deviation of the averaged measurements. The list shows a part of the results.

The assay deals with PfAP2-LT AP2 domain (GST-tagged). Briefly: gcPBM binding intensity (ln(normalized median fluorescence intensity)); higher = stronger DNA binding. The method, boiled down: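 Plasmodium falciparum DNA-binding domains carrying a GST tag were expressed in E. coli and applied for 1 h, at about 25 μg on average, to an Agilent 4 × 180k array. The array held primer-extended double-stranded 36-bp intergenic genomic probes together with negative controls, and binding took place in 1× PBS with 1% milk, 0.2 mg/ml BSA, 0.5% salmon testes DNA and 0.03% Triton X-100. An Alexa488 anti-GST antibody detected bound protein, and the array was scanned at 488 nm. Binding intensity is taken as the highest Masliner-normalised natural-log median intensity across replicate spots of either probe orientation.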
Regarding “TAATAATAGAAACACACACACATTTTTAATAATACA [CACACA_site1216]”, the “gcPBM binding intensity (ln)” value was 9.74 ± 0.34.

In the case of “TTTTATTTTTATAACAGTACATAAGTAATTGTTCAA [XGTACX_site7574]”, the “gcPBM binding intensity (ln)” value was 8.49 ± 0.43.

On to “TTTTATCATCACATTTGTCAAAAAAAAAAAAAAAAA [CACACA_negctrl_site1296]”, for which the “gcPBM binding intensity (ln)” value was found to be 8.11 ± 0.38.

On to ATATCAAACTAGAATGTGCGCATGCATTCAAGTTTT, for which the “gcPBM binding intensity (ln)” value is 8.88 ± 0.28. Regarding “GATTTTATAATTTCTACACACATATAAGAATATTCA [CACACA_site2802]”, the “gcPBM binding intensity (ln)” value was found to be 8.86 ± 0.39. For “TTATGTTCATTATATGCACACATATATATAAATGTA [CACACA_site8947]”, the “gcPBM binding intensity (ln)” value was 8.86 ± 0.33. “AAAAAAAATTTCTCAAGTACACAATTTTTTTTTGTT [XGTACX_site5874]”: the “gcPBM binding intensity (ln)” value was 8.62 ± 0.45. In the case of “TTTTTTTAAATATATAAGATAAATTTATAAATAAAT [XGTACX_negctrl_site282]” it was 7.93 ± 0.43. For “TTCAATTTTTTAAAGCGTACATATAAAAGTTATATG [XGTACX_site731]”, the “gcPBM binding intensity (ln)” value was found to be 8.49 ± 0.35. Take “AATCATTTGTTATAAGTCTAAAATTATTAGAATATT [XGTACX_negctrl_site151]”: the “gcPBM binding intensity (ln)” value was 8.47 ± 0.52. With “ATTATTACATATAATGCATGTGCATATATTTTTATA [TGCATGCA_site701]”, the “gcPBM binding intensity (ln)” value amounted to 8.8 ± 0.42. Regarding “AAATTTGGATGACTCAATAAATTATAATATATATAT [CACACA_negctrl_site298]”, the “gcPBM binding intensity (ln)” value amounted to 8.55 ± 0.49. Regarding “ATATTCTTTATATGCATACACACCTAATATAGGGAC [CACACA_site1533]”, the “gcPBM binding intensity (ln)” value was determined as 8.91 ± 0.38. Consider “TATAATAAATCGAACTGTACATATATATATATATAT [XGTACX_site7097]”, for which the “gcPBM binding intensity (ln)” value stood at 9.63 ± 0.51. As for “TATACGCAGAAACACACACACAAAAAAAAAAAAAAA [CACACA_site427]”, the figure is 9.55 ± 0.53. Regarding “ATTCGGATCTATAAGTGTACACAATCTAGCGAAAAG [XGTACX_site3088]”, the “gcPBM binding intensity (ln)” value stood at 8.77 ± 0.52. Consider “CATATATAAATATATACACACATATATATATATATA [CACACA_site1365]”, for which the “gcPBM binding intensity (ln)” value amounted to 9.75 ± 0.24. In the case of “TTTATTCAAATATAATGTACTTTCTACAAATTCAAT [XGTACX_site8119]” it was 8.28 ± 0.44. Turning to “ATTTTTTTTGCTAAGTGTACACAAATGTTTATTAAT [XGTACX_site7440]”, the “gcPBM binding intensity (ln)” value amounted to 8.88 ± 0.51. In the case of “TTATATAACACGGGGAGGACACAAGAAATAAAGAGC [XGTACX_site2148]”, the “gcPBM binding intensity (ln)” value is 8.88 ± 0.52. Take “GCTAATAATAAAAGCATAATGAACAAACACCCAGTA [CACACA_negctrl_site806]”: the “gcPBM binding intensity (ln)” value was found to be 9.24 ± 0.33. For the sequence “TTTTTCTGTTTTTATAGCCTTCTCATAATACATAAA [TGCATGCA_negctrl_site355]”, the “gcPBM binding intensity (ln)” value is 8.46 ± 0.57.

Turning to “ATATTTTCCCTTTATAGGAGCACAAAAATTAAATGT [CACACA_negctrl_site1114]”, the “gcPBM binding intensity (ln)” value turned out to be 8.46 ± 0.35. Take “CAGATAAGATTTTGTGGTACTATTTATTAAATTAGA [XGTACX_site2644]”: the “gcPBM binding intensity (ln)” value worked out at 8.41 ± 0.38.

Consider “AACAATTATTGTAATGCATGCACTGAATATAGAAAG [TGCATGCA_site889]”, for which the “gcPBM binding intensity (ln)” value came to 9.25 ± 0.42. As for “ATTCACAAATATATGGTGCATAATATATATATATAT [GTGCAC_site9674]”, the “gcPBM binding intensity (ln)” value came to 9.07 ± 0.15. With “AGCGTATAACATATGACACACACACCGACATACACA [CACACA_site8532]”, the “gcPBM binding intensity (ln)” value was determined as 9.86 ± 0.3. In the case of “TACGTATCATAATTTTATTTTATATATATTCACAAA [XGTACX_negctrl_site144]” it was 8.47 ± 0.45; in that of “ATATATATATGGAAGTGTACTTATATAGCATACTAG [XGTACX_site5130]”, 8.94 ± 0.35. As to “AAATTTTTATAATTATCACACATTGAATTGTGGTCT [CACACA_site4343]”, the “gcPBM binding intensity (ln)” value is 8.91 ± 0.43. Consider “AATATGTAAATATGGGTGCTTTAAAATATATTCATT [GTGCAC_site9583]”, for which the “gcPBM binding intensity (ln)” value was 8.65 ± 0.45. “TTCCAATGATAAAATTGTACTTGAAGAAAATTTTTT [XGTACX_site4607]”: the “gcPBM binding intensity (ln)” value stood at 8.23 ± 0.5. For the sequence “TATATATATATATGTACACACACACCGATAAATAAA [CACACA_site8041]”, the “gcPBM binding intensity (ln)” value turned out to be 9.69 ± 0.15.

As to “TTTTTGTCTGCATACGCACACACGTGGACCATCTTA [CACACA_site8303]”, the “gcPBM binding intensity (ln)” value amounted to 9.48 ± 0.45.

As for “AAAGAAAGAAAACACACACACATATATATATATCAA [CACACA_site3743]”, the “gcPBM binding intensity (ln)” value turned out to be 9.71 ± 0.28. Take “ATTTCCCATACACGTTGTACAATGTAGAGAAAGTAT [XGTACX_site4586]”: the “gcPBM binding intensity (ln)” value was found to be 8.81 ± 0.48. In the case of “GATATGTGTATAATATGTACATATATATATATATAT [XGTACX_site6531]” it was 9.58 ± 0.34; in that of “CTATTTAAAATATGAACACACATTATTTGTTTTAGA [CACACA_site2713]”, 8.56 ± 0.42. As to “ATATCATTATATAGTTGTACATATTTATTTATTTAT [XGTACX_site8995]”, the “gcPBM binding intensity (ln)” value is 8.97 ± 0.45. In the case of “AATATAGGAATATGCACACATATATACCTACATACA [CACACA_site4939]” it was 9.14 ± 0.39; in that of “AAAAAAAAAAATACTAGTACGTAAAATTATATAAAT [XGTACX_site3019]”, 8.9 ± 0.49; in that of “TAATACTTATATAAAGGTACACAATTTAACCGAATG [XGTACX_site7173]”, 8.76 ± 0.4. Take “GTAAATATTCATATATGTACTTATGATATTTGCTAA [XGTACX_site6828]”: the “gcPBM binding intensity (ln)” value amounted to 8.68 ± 0.37. As for “AAGAAAGAGTTCTGTTGTACAAAATATTAATATGTA [XGTACX_site7213]”, the “gcPBM binding intensity (ln)” value was found to be 8.81 ± 0.52.

With “CTTCCTTAGGAATGTACACACATATAAAATATGTTG [CACACA_site6355]”, the “gcPBM binding intensity (ln)” value is 8.86 ± 0.38. For “ACATATATATATATATATTGATTTATTTATTTCCCT [CACACA_negctrl_site659]”, the “gcPBM binding intensity (ln)” value came out at 8.83 ± 0.42.

As for “ATATATATATATAAATGTACAAAAATATATATGTAA [XGTACX_site4531]”, the “gcPBM binding intensity (ln)” value turned out to be 8.99 ± 0.38.

Regarding “TTTCATTTTTTTACATGTACGCAAAAGTGTGTAGTT [XGTACX_site6582]”, the “gcPBM binding intensity (ln)” value came to 9.13 ± 0.28. In the case of “TTTTGGTTAATTCCCCCCATTACATTATGTCATGTC [CACACA_negctrl_site229]” it was 9.36 ± 0.17. As for “AACAAAATAAAAAGTAATCTTATTTATTAAAATTTT [CACACA_negctrl_site419]”, the figure is 8.3 ± 0.62; as for “TATAAACAAAACAAAACATGCATAATACTATAAATT [TGCATGCA_site333]”, 9.04 ± 0.36. For “TAATTAACTTTATATGCATGTTAAAAATGTTATAAG [TGCATGCA_site761]”, the “gcPBM binding intensity (ln)” value was 8.32 ± 0.31. Regarding “CTTTATTATAAGATTACACACATGTGTTCTAATTTA [CACACA_site7479]”, the “gcPBM binding intensity (ln)” value amounted to 9.22 ± 0.38. As to “ATTACCATATAAAACACACAAACATACATACATACA [CACACA_site3729]”, the “gcPBM binding intensity (ln)” value was determined as 9.38 ± 0.3. For the sequence “TATATATATATATATTGTACATATTAATATTAGAAA [XGTACX_site8923]”, the “gcPBM binding intensity (ln)” value was determined as 8.765 ± 0.064. Turning to “TGGAGGTCAGTTCACAGTACCCAGAAACTCTACGAG [XGTACX_site2007]”, the “gcPBM binding intensity (ln)” value is 8.57 ± 0.45.

For the origin of these results see the supplement of paper PMC11417369.
